Reference: the RNAGym collection of RNA variant scans (doi:10.1073/pnas.2313332121)
Variants at the background level are over-represented here.

B1: TPR 5TU (parent)
chain: GGAUCUUCUCGAUCUAACAAAAAAGACAAAUCUGCCACAAAGCUUGAGAGCAUCUUCGGAUGCAGAGGCGGCAGCCUUCGGUGGCGCGAUAGCGCCAACGUUCUCAACUAUGACACGCAAAACGCGUGCUCCGUUGAAUGGAGUUUAUCAUG

Variants of: B1
Assay: polymerase ribozyme fitness, log enrichment relative to wild type (log ratio); higher = more active; in vitro selection for triplet polymerase activity
Outline: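 Each subunit of a heterodimeric triplet polymerase ribozyme was mutagenized into a library by PCR, transcribed, and subjected to one round of in vitro selection, run in triplicate. Libraries were annealed with a biotinylated primer, the partner subunit and triplets, incubated frozen at −7 °C, and extended constructs were gel-excised, captured on streptavidin beads and recovered by RT-PCR. Input and output libraries were sequenced on Illumina, keeping genotypes with ≥10 input reads and ≥1 read per output. Fitness is log base 2 of genotype enrichment divided by wild-type enrichment, from inverse-variance-weighted replicate averages.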

Which “polymerase ribozyme fitness (log ratio)” value does the source give for GGAUCUUCUCGAUCUAACAAAAAAGACAAAUCUGCCACAAAGCUUGAGAGCAUCUUCGGAAGCAGUGGCGGCAGCCUUCGGCGGCGCGAUACCGGCAACGUUCUCAACUAUGACACGCAAAACGCGUGCUCCGUUGAAUGGAGUUUAUCAUG [U61A A66U U82C G92C C95G] here?
Its value is no more than -4.2.

For GGAUCUUCUCGAUCUAACAAAAAAGACAAAUCUGCCACAAAGCUUGAGAGCAUCUUCGGAAGCAGAGGCGGCAGCCUUCGGUGGAGCGAUAGCGCCAACGUUCUCAACUAUGACACGCAAAACGCGUGCUCCGUUGAAUGGAGUUUAUCAUG [U61A C85A], which “polymerase ribozyme fitness (log ratio)” value is on record?
The value was -3.12.

For GGAUCUUCUCGAUCUAACAAAAAAGACAAAUCUGCCACAAAGCUUGAGAGCAUCUUCGGAAGCAGAGGCGGCAGCCUUCGGUGGGGCGAUAGCGCCAACGUUCUCAACUAUGACACGCAAAACGCGUGCUCCGUUGAAUGGAGUUUAUCAUG [U61A C85G], which “polymerase ribozyme fitness (log ratio)” value is on record?
Its value is no more than -4.2.

With GGAUCUUCUCGAUCUAACAAAAAAGACAAAUCUGCCACAAAGCUUGAGAGCAUCUUCGGAAGCAGAGGCGGUAGCCUUCGGUGGCGCGAUAGCGCCAACGUUCUCAACUAUGACACGCAAAACGCGUGCUCCGUUGAAUGGAGUUUAUCAUG [U61A C72U] as the variant, how does the “polymerase ribozyme fitness (log ratio)” value read?
The value was -3.66.

With GGAUCUUCUCGAUCUAACAAAAAAGACAAAUCUGCCACAAAGCUUGAGAGCAUCUUCGGAAGCAGAGGCGGCAGCCUUCGGUGGCGCGAUAGCUCCAACGUUCUCAAUUAUGACACGCAUAACGCGUGCUCCGUUAAAUGGAGUUUAUCACG [U61A G94U C108U A120U G136A U151C] as the variant, how does the “polymerase ribozyme fitness (log ratio)” value read?
Its value is no more than -4.2.

Which “polymerase ribozyme fitness (log ratio)” value does the source give for GGAUCUUCUCGAUCUAACAAAAAAGACAAAUCUGCCACAAAGCUUGAGAGCAUCUUCGGAAGCAGAGGCGACAGUCUUCGGUGGCGCGAUAGCGCCAACGUUCUCAACUAUGACACGCAAAACGCGUGCUCCGUUGUAUGGAGUUUAUCAUC [U61A G71A C75U A137U G152C] here?
The value was no more than -4.2.

Which “polymerase ribozyme fitness (log ratio)” value does the source give for GGAUCUUCUCGAUCUAACAAAAAAGACAAAUCUGCCACAAAGCUUGAGAGCAUCUUCGGAAGCAGAGGCGGCGGCCUUCGGUGGCGCGAUAGCGCCAACGUUCUCAACUAUGACACGCAAAACGCGUGCUCCGUUGAAUGGAGUUUAUCAUG [U61A A73G] here?
Its value is -1.42.

With GGAUCUUCUCGAUCUAACAAAAAAGACAAAUCUGCCACAAAGCUUGAGAGCAUCUUCGGAAGCAGAGUCGGCAGCCUUCGGUGGCGCGAUAGCGCCAACGUUCUCAGCUAUGACACGCAAAACGCGUGCUCCGUUGAAUGGAGUCUCUCAUG [U61A G68U A107G U145C A147C] as the variant, how does the “polymerase ribozyme fitness (log ratio)” value read?
Its value is no more than -4.2.

For GGAUCUUCUCGAUCUAACAAAAAAGACAAAUCUGCCACAAAGCUUGAGAGCAUCUUCGGAAGCAGAGGCGGCAGCCUUCGGUGGCGCGAUAGCGCCAACGUUCUUAACUAUGACACGCAAAACGCGUGCUCCGUUGAAUGGAGUUUAUCAUG [U61A C105U], which “polymerase ribozyme fitness (log ratio)” value is on record?
The value was -1.02.

Which “polymerase ribozyme fitness (log ratio)” value does the source give for GGAUCUUCUCGAUCUAACAAAAAAGACAAAUCUGCCACAAAGCUUGAGAGCAUCUUCGGAAGCAGAGGCGGCAGCCUUCGGUGGCGCGAUAGGGCCAACGUUCUCAACUAUGACACGCAAAACGCGUGCUCCGUUGAAAGGAGUUUAUCAUG [U61A C93G U139A] here?
The value was no more than -4.2.

For GGAUCUUCUCGAUCUAACAAAAAAGACAAAUCUGCCACAAAGCUUGAGAGCAUCUUCGGAAGCAGAGCCGGCAGCCUUAGGUGGCGCGAUAGCGCCAACGUUCUCAACUAUGACACGCAAAACGCGUGCUCCGUUGAAUGGAGUGUAUCAUG [U61A G68C C79A U145G], which “polymerase ribozyme fitness (log ratio)” value is on record?
The value was no more than -4.2.

For GGAUCUUCUCGAUCUAACAAAAAAGACAAAUCUGCCACAAAGCUUGAGAGCAUCUUCGGAAGCAGAGGCGGCAGCCUUCGGUGGCGCGAGAGCGCCAACGUUCUCAACUAUGACACGCAAAACGCGUGCUCCGUUGAACGGAGUUUAUCAUG [U61A U90G U139C], which “polymerase ribozyme fitness (log ratio)” value is on record?
The value was no more than -4.2.

Which “polymerase ribozyme fitness (log ratio)” value does the source give for GGAUCUUCUCGAUCUAACAAAAAAGACAAAUCUGCCACAAAGCUUGAGAGCAUCUUCGGAAGCAGAGGCGGCAGCCUUCGGUGGCGCGAUAGCGCCCACGUUCUCAACUAUGACACGCAAAACGCGUGCUCCGUUGAAUGGAGUUUAUCAUG [U61A A97C] here?
Its value is -1.48.

For GGAUCUUCUCGAUCUAACAAAAAAGACAAAUCUGCCACAAAGCUUGAGAGCAUCUUCGGAAGCAGAGGCGGCAGCCUUCGGUGGCGCGAUAGCGCCAACGUUCUCAAGUAUGACAAGCAAAACGCGUGCUCCGUUGAAAGGAGUUUAUCAUG [U61A C108G C116A U139A], which “polymerase ribozyme fitness (log ratio)” value is on record?
The value was no more than -4.2.

With GGAUCUUCUCGAUCUAACAAAAAAGACAAAUCUGCCACAAAGCUUGAGAGCAUCUUCGGAAGCAGAGGCGGCAGCCUUCGGUGGCGCGAUAGCGUCAACGUUCUCAACUAUGACACGCAAAACGGGUGCUCCGUUGAAUGGCGUUUAUCAUG [U61A C95U C125G A142C] as the variant, how does the “polymerase ribozyme fitness (log ratio)” value read?
The value was no more than -4.2.

For GGAUCUUCUCGAUCUAACAAAAAAGACAAAUCUGCCACAAAGCUUGAGAGCAUCUUCGGAAGCAGAGGCGGCAGCCUUCGGUGGCGCGAUAGCGCCAACGUUCUCAACUAUGACACGCAAAAUGCGUGCUCCGUUGAAUGGAGCUUACCAUG [U61A C123U U144C U148C], which “polymerase ribozyme fitness (log ratio)” value is on record?
The value was no more than -4.2.

For GGAUCUUCUCGAUCUAACAAAAAAGACAAAUCUGCCACAAAGCUUGAGAGCAUCUUCGGAAGCAGAGGCGGCAGCCUUCGGUGGCGCGAUAGCGCCAACGUUCUCAACUAUGACACGCAAAACGAGUGCUCCGUUGAAUGGAGUUUAUCAUG [U61A C125A], which “polymerase ribozyme fitness (log ratio)” value is on record?
The value was -2.73.

For GGAUCUUCUCGAUCUAACAAAAAAGACAAAUCUGCCACAAAGCUUGAGAGCAUCUUCGGAAGCAGAGGCGGCAGCUUUCGGUGGUGCGAUAGCGCAAACGUUCUCAACUAUGACGCGCAAAACGCGUGCUCCGUUGAAUGGAGUUUAUCAUG [U61A C76U C85U C96A A115G], which “polymerase ribozyme fitness (log ratio)” value is on record?
Its value is no more than -4.2.

Which “polymerase ribozyme fitness (log ratio)” value does the source give for GGAUCUUCUCGAUCUAACAAAAAAGACAAAUCUGCCACAAAGCUUGAGAGCAUCUUCGGAAGCAGAGGCGGCAGCCUUCGGUGGCCCGAUAGCGACAACGUUCUCAACUAUGACACGCAAAACGCGUGCUCCGUUGAAUGGAGUUUAUCAUG [U61A G86C C95A] here?
The value was no more than -4.2.
